The campaign covered roughly 45,000 compounds. About 200 (0.44%) were called active. Inconclusive results (about 7%) are left out. Calls follow the shape of the dose curve; as a rule, active = well fitted activation curve with a large enough effect; inconclusive = small, poorly fitted or top-dose-only effect; inactive = no such curve, though single readings can be large or run the other way. The list shows a part of the results.
Experiment: qHTS of TDP-43 Inhibitors: NCGC Sytravon Library Screen; also: 0% is about no effect; nearly all actives have a fitted effect of over 55% in size
Conditions: yeast TDP-43 toxicity rescue, BacTiter-Glo growth, 24 h; series mostly up to 46.1 µM; growth rescue (activation): at the top concentration
Procedure, shortened: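 TDP-43-expressing yeast, pregrown in raffinose, seeded at OD600 0.02 in galactose medium with compound for 24 hr at 30 deg C. Growth read by BacTiter-Glo luminescence, so rescue of toxicity appears as activation.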
For `O=S(=O)(c1cccs1)N1CN(C2CCCCC2)c2nc3ccccc3nc21`, the “growth rescue (activation)” value was inactive: 11.7%.
For `COc1ccccc1NS(=O)(=O)c1ccc2oc(=S)[nH]c2c1`, the “growth rescue (activation)” value was inactive: 16.7%.
For `CC(C(=O)N1CCCCCC1)N(c1ccc(Cl)cc1)S(C)(=O)=O` (stereo unspecified), the “growth rescue (activation)” value was inactive: 11.8%.
For `O=C(/C=C/c1ccc(-c2ccc(F)cc2)o1)N1CCCC1`, the “growth rescue (activation)” value was inactive: 30.4%.
With `COc1cc2c(cc1OC)CN(CC(=O)NC(=O)NCc1ccccc1)CC2` the “growth rescue (activation)” value was inactive: 6.13%.
For `COCCNC(=O)C(c1ccc(O)cc1)N(Cc1cccs1)C(=O)CCC(=O)Nc1ccccn1` (stereo unspecified), the “growth rescue (activation)” value was inactive: -7.45%.
In the case of `OCCNCCOc1ccccc1F`, the “growth rescue (activation)” value is reported as inactive: -20.8%.
For `N/C(=N\OC(=O)CN1C(=O)c2ccccc2C1=O)c1ccc(Br)cc1`, the “growth rescue (activation)” value was inactive: -2.32%.
For `Cc1cc(Br)c(NC(=O)COC(=O)CSc2nnc(-c3ccc(Cl)cc3)o2)c(Br)c1`, the “growth rescue (activation)” value was inactive: -4.57%.
With `Cc1ccccc1S(=O)(=O)N(CC(O)CN1C(=O)NC(C)(C)C1=O)c1ccccc1` (stereo unspecified) the “growth rescue (activation)” value was inactive: 1.8%.
In the case of `COc1ccc(S(=O)(=O)N2CCN(C(=S)Nc3ccc(S(N)(=O)=O)cc3)CC2)cc1`, the “growth rescue (activation)” value is reported as inactive: 8.49%.
For `COCOc1ccc(-c2ncc(OCCN3CCCC3=O)nc2NC(=O)c2cc3ccccc3s2)cc1`, the “growth rescue (activation)” value was inactive: 15.3%.
With `N/C(=N\N=C\c1ccc(O)cc1)c1nonc1N` the “growth rescue (activation)” value was inactive: 9.51%.
In the case of `COc1ccccc1NC(=S)N1CCC(NC(=O)c2ccco2)CC1`, the “growth rescue (activation)” value is reported as inactive: 12%.
For `COc1cccc(C(=O)Nc2ccc(NC(=O)C3CCCCC3)nc2)c1`, the “growth rescue (activation)” value was inactive: 7.13%.
In the case of `COc1cccc(/C=C/C(=O)c2ccc(NS(=O)(=O)c3ccc(C)cc3)cc2)c1`, the “growth rescue (activation)” value is reported as inactive: 3.48%.
For `Cc1cccc(C2CC3(CC(C)(C)NC(=S)N3)Oc3cc(O)ccc32)c1` (stereo unspecified), the “growth rescue (activation)” value was inactive: -2.21%.
In the case of `CC1(C(=O)Nc2ccc3c(c2)OCO3)CCN1Cc1csc2ccccc12` (stereo unspecified), the “growth rescue (activation)” value is reported as inactive: 1.52%.
With `CC(C)(C)NC(=O)C(c1ccc(F)cc1)N(C(=O)CCC(=O)Nc1ccccn1)C1CCCC1` (stereo unspecified) the “growth rescue (activation)” value was inactive: 10.9%.
In the case of `CC1CCN(S(=O)(=O)c2ccc(NC(=O)C3CCN(C(=O)c4ccco4)CC3)cc2)CC1`, the “growth rescue (activation)” value is reported as inactive: 9.43%.
For `COc1cc(C(=O)OC2CCOC2=O)c([N+](=O)[O-])cc1OC` (stereo unspecified), the “growth rescue (activation)” value was inactive: -6.26%.
For `O=C(COC(=O)/C=C/c1ccc(OC(F)F)cc1)Nc1cccc(S(=O)(=O)N2CCOCC2)c1`, the “growth rescue (activation)” value was inactive: 9.59%.
With `COC(=O)c1cc([N+](=O)[O-])ccc1N1CCN(Cc2ccccc2)CC1` the “growth rescue (activation)” value was inactive: -14.1%.
For `Nc1nonc1-n1nnc(C(=O)N/N=C/c2ccccc2Cl)c1-c1ccccc1`, the “growth rescue (activation)” value was inactive: -2.92%.
With `COc1ccc(C(=O)NCC2(N3CCCCC3)CCCCC2)cc1S(=O)(=O)N(C)C` the “growth rescue (activation)” value was inactive: 1.04%.
In the case of `COc1ccc(C(O)(CC(C)C)C(CN2CCOCC2)c2ccccc2)cc1` (stereo unspecified), the “growth rescue (activation)” value is reported as inactive: 9.02%.
With `CC(C(=O)NC1CCCC1)N1CCN(Cc2ccccc2)CC1` (stereo unspecified) the “growth rescue (activation)” value was inactive: 17.3%.
For `Cc1c(NC(=O)c2c([N+](=O)[O-])cnn2C)c(=O)n(-c2ccccc2)n1C`, the “growth rescue (activation)” value was inactive: 4.6%.
In the case of `O=C(c1cccc(OC2CCN(Cc3cccc(OCCO)c3)CC2)c1)N1CCCC1`, the “growth rescue (activation)” value is reported as inactive: 14.1%.
For `CC(=O)c1ccc(-n2c(CCC(=O)O)ccc2-c2ccc(C)cc2)cc1`, the “growth rescue (activation)” value was inactive: 4.11%.
In the case of `CC/C(=N\Nc1ccccc1[N+](=O)[O-])c1ccc(O)cc1`, the “growth rescue (activation)” value is reported as inactive: -3.86%.
In the case of `Cc1nnc(NC(=O)CCS(=O)(=O)Cc2ccccc2)s1`, the “growth rescue (activation)” value is reported as inactive: -1.32%.
With `CCCCc1nnc(NC(=O)CSc2nc(O)c(-c3ccccc3)c(=O)[nH]2)s1` the “growth rescue (activation)” value was inactive: 15.8%.
For `CCOc1ccc(NC(=S)N(CCN2CCOCC2)Cc2cc3cc4c(cc3[nH]c2=O)OCO4)cc1`, the “growth rescue (activation)” value was inactive: 3.22%.
With `COc1cc(C=O)ccc1OCCOc1ccccc1[N+](=O)[O-]` the “growth rescue (activation)” value was inactive: 13%.
In the case of `NCCNc1cc(N2CCCC2)ccc1[N+](=O)[O-]`, the “growth rescue (activation)” value is reported as inactive: -0.736%.
With `Cc1ccc(C)c(N2C(=N)S/C(=C\c3ccc(-c4ccccc4C(=O)O)o3)C2=O)c1` the “growth rescue (activation)” value was inactive: 27.7%.
In the case of `Cn1nc(C(C)(C)C)cc1C(=O)N1CCCCC1c1cc(C(=O)Nc2cccc(C#N)c2)no1` (stereo unspecified), the “growth rescue (activation)” value is reported as inactive: 9.4%.
With `CCOc1ccc(S(=O)(=O)NC(C)C(=O)NCc2cccnc2)cc1` (stereo unspecified) the “growth rescue (activation)” value was inactive: 8.41%.
For `CCOc1ccc(Oc2c(/C=N/NC(C)=O)c(C)nn2-c2ccccc2)cc1`, the “growth rescue (activation)” value was inactive: -4.02%.
In the case of `Oc1c(Cl)cc(Cl)cc1/C=C/c1ccc2cccc(O)c2n1`, the “growth rescue (activation)” value is reported as inactive: 24.4%.
For `COc1ccc2cc(CN(CCc3ccccc3)Cc3nnnn3Cc3ccco3)c(=O)[nH]c2c1`, the “growth rescue (activation)” value was inactive: 6.95%.
In the case of `Cn1nc(C(F)(F)F)c2cc(NC(=O)OCc3ccc(C(C)(C)C)cc3)sc21`, the “growth rescue (activation)” value is reported as inactive: 13.9%.
With `Cc1ccc(NC(N)=S)cc1` the “growth rescue (activation)” value was inactive: 9.93%.
With `O=C(CSc1nnc(-c2cccnc2)s1)Nc1ccc(C(=O)O)cc1` the “growth rescue (activation)” value was inactive: -20.8%.
With `O=C(COC(=O)c1sc2ccccc2c1Cl)Nc1ncc(Cl)cc1Cl` the “growth rescue (activation)” value was inactive: 1.8%.
For `CCOC(=O)C1CCCN(C(=O)c2ccc(Cl)cc2)C1` (stereo unspecified), the “growth rescue (activation)” value was inactive: 12.9%.
In the case of `COc1ccc(Nc2nc(-c3cccc([N+](=O)[O-])c3)nc3ccccc23)c(OC)c1`, the “growth rescue (activation)” value is reported as inactive: -38%.
In the case of `CCOc1ccc(C(C)=O)cc1COc1cccnc1[N+](=O)[O-]`, the “growth rescue (activation)” value is reported as inactive: 2.4%.
For `O=[N+]([O-])c1cccc(N(CC2CO2)S(=O)(=O)c2ccccc2)c1` (stereo unspecified), the “growth rescue (activation)” value was inactive: 7.67%.
For `CCOC(=O)Nc1cc(C)c(Cl)cc1OC`, the “growth rescue (activation)” value was inactive: 18.4%.
For `O=C(Nc1ccccc1Cl)c1cc(C2CCCCN2S(=O)(=O)c2ccccc2)on1` (stereo unspecified), the “growth rescue (activation)” value was inactive: 6.53%.
For `COc1nc(NC(C)C)nc(N(C#N)CN2C(=O)c3ccccc3S2(=O)=O)n1`, the “growth rescue (activation)” value was inactive: 28.9%.
With `O=C(CSc1n[nH]c(-c2ccc(Br)cc2)n1)N1CCOCC1` the “growth rescue (activation)” value was inactive: -26.7%.
With `CCN(C(=O)COC(=O)c1c(C)nn(-c2ccccc2)c1C)C1CCS(=O)(=O)C1` (stereo unspecified) the “growth rescue (activation)” value was inactive: 5.44%.
For `Cc1ccc(OCC(=O)NCC(=O)n2nc(C)cc2C)cc1`, the “growth rescue (activation)” value was inactive: 34.6%.
In the case of `CCCCN(CCCC)Cc1ccc(C(=O)NNC(=O)Nc2ccc(Cl)cc2)o1`, the “growth rescue (activation)” value is reported as inactive: -1.7%.
For `CC(NCC1COc2ccccc2O1)C1COc2ccccc2O1` (stereo unspecified), the “growth rescue (activation)” value was inactive: -14.1%.
For `COc1ccc(C2C3=C(CC(C)(C)CC3=O)Oc3ncn(CC(C)C)c(=N)c32)cc1` (stereo unspecified), the “growth rescue (activation)” value was inactive: 26.8%.
For `COc1ccc(Oc2cn[nH]c2-c2ccc(O)cc2O)cc1`, the “growth rescue (activation)” value was inactive: 9.82%.
With `Nc1nc(Cl)cc(NCCc2ccc(O)cc2)n1` the “growth rescue (activation)” value was inactive: -13%.
With `Cn1ncc([N+](=O)[O-])c1C(=O)Nc1cccc2ccccc12` the “growth rescue (activation)” value was inactive: -2.46%.
With `COc1cc2c(c(OC)c1OC)-c1ccc(NC(=O)c3ccccc3)c(=O)cc1[C@@H](NC(C)=O)CC2` the “growth rescue (activation)” value was inactive: 12.8%.
For `Cc1cc(S(=O)(=O)N(Cc2ccc(C(C)(C)C)cc2)Cc2cccs2)ccc1-n1cnnn1`, the “growth rescue (activation)” value was inactive: 17.6%.
With `COc1ccc(C(=O)Oc2ccc3ccc(=O)oc3c2)cc1` the “growth rescue (activation)” value was inactive: 3.07%.
In the case of `Cc1ccccc1NC(=O)Nc1nc(C(N)Cc2ccccc2)cs1` (stereo unspecified), the “growth rescue (activation)” value is reported as inactive: -0.25%.
